Results: the supplement of paper PMC5919970
Counter-ions that a name gives are not always drawn. In all, about 2,000 compounds were measured (“fractional viability relative to vehicle”: median about 0.91, lowest 2% from about 0.045 on). This is one part of the list.

Test system: TYKNU
Assay: fractional viability relative to vehicle; TYKNU is a high-grade serous ovarian cancer line; higher = less growth inhibition
Conditions: 72 h
Outline: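 TYKNU control cells or lentiCRISPRv2 knockout derivatives were seeded at 500 cells per well into drug-stamped 384-well plates holding a ~2100-compound library at 2 or 10 μM, in duplicate. Cells were grown at 37 °C in 5% CO2 in RPMI 1640 with 10% FBS, and drug treatment lasted 72 h. Viability was read by Cell Titer Glo luminescence. Duplicate treatment wells were averaged and normalised to duplicate control wells from the same plate position.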

[1] = 2uM, genotype: DNM1L knockout (sgDNM1L #1)
[2] = 2uM, genotype: sgCTRLA1 (non-targeting control)
[3] = 10uM, genotype: DNM1L knockout (sgDNM1L #1)
[4] = 10uM, genotype: sgCTRLA1 (non-targeting control)

| SMILES | fractional viability [1] | fractional viability [2] | fractional viability [3] | fractional viability [4] |
| --- | --- | --- | --- | --- |
| CCc1cc(Nc2nccc(-c3c(-c4ccc(OC)c(C(=O)Nc5c(F)cccc5F)c4)nc4ccccn34)n2)c(OC)cc1N1CCC(N2CCN(S(C)(=O)=O)CC2)CC1 | 1.12 | 1.04 | 0.72 | 0.915 |
| COc1cccc(-c2cc(=O)c3ccccc3o2)c1N | 1.19 | 1.1 | 1.17 | 0.967 |
| C=CCNC(N)=S [Allylthiourea] | 1.12 | 1.1 | 0.797 | 1.07 |
| CNC(=O)c1cccc(-c2ccc3c(N4CCOC[C@@H]4C)nc(N4CCOC[C@@H]4C)nc3n2)c1 | 0.277 | 0.218 | 0.201 | 0.237 |
| CN(C)CCOC(C)(c1ccccc1)c1ccccn1 (stereo not drawn) [Doxylamine Succinate] | 0.893 | 1.15 | 0.871 | 1.09 |
| COc1cc2nccc(Oc3ccc(NC(=O)Nc4cc(C)on4)c(Cl)c3)c2cc1OC [Tivozanib (AV-951)] | 1.07 | 0.945 | 0.592 | 0.594 |
| CC(C)(C#N)c1cc(Cn2cncn2)cc(C(C)(C)C#N)c1 [Anastrozole] | 0.925 | 1.08 | 0.909 | 1.02 |
| COc1cccc(-n2c(=O)[nH]c3cc(Cl)n(-c4ccc(-c5cccc(OC)c5O)cc4)c3c2=O)c1 | 0.844 | 1.02 | 0.857 | 0.918 |
| C[C@@H](O)[C@H]1C(=O)N2C(C(=O)O)=C(S[C@@H]3CN[C@H](CNS(N)(=O)=O)C3)[C@H](C)[C@H]12 [Doripenem Hydrate] | 1.12 | 1.17 | 0.93 | 1 |
| OC(CNCC(O)C1CCc2cc(F)ccc2O1)C1CCc2cc(F)ccc2O1 (stereo not drawn) [Nebivolol] | 0.798 | 0.981 | 0.276 | 0.606 |
| CN(CC(=O)N(Cc1ccc(C2CCCCC2)cc1)c1ccc(C(=O)O)cc1)S(=O)(=O)c1c(F)c(F)c(F)c(F)c1F | 0.435 | 0.661 | 0.042 | 0.0176 |
| CC[C@H](C)[C@H](N)C1=N[C@H](C(=O)N[C@@H](CC(C)C)C(=O)N[C@H](CCC(=O)O)C(=O)N[C@H](C(=O)N[C@H]2CCCCNC(=O)[C@H](CC(N)=O)NC(=O)[C@@H](CC(=O)O)NC(=O)[C@H](Cc3cnc[nH]3)NC(=O)[C@@H](Cc3ccccc3)NC(=O)[C@H]([C@@H](C)CC)NC(=O)[C@@H](CCCN)NC2=O)[C@@H](C)CC)CS1 [Bacitracin] | 0.773 | 1.01 | 0.665 | 0.934 |
| O=C(CCc1ccc(O)cc1)c1c(O)cc(O)cc1O [Phloretin] | 1 | 1.08 | 0.907 | 1.19 |
| CC(S)C(=O)NCC(=O)O (stereo not drawn) [Tiopronin] | 1.11 | 1.15 | 0.887 | 1.03 |
| CNCc1ccc(-c2cc(-c3nc(-c4ccc(S(=O)(=O)C(C)C)cc4)cnc3N)on2)cc1 | 0.919 | 1.19 | 0.902 | 1.1 |
| CN1CCN(CCCN2c3ccccc3Sc3ccc(C(F)(F)F)cc32)CC1 [Trifluoperazine 2HCl] | 0.952 | 1.15 | 0.455 | 0.707 |
| CNC[C@H](O)c1ccc(O)c(O)c1 [Epinephrine HCl] | 0.952 | 1.03 | 0.779 | 0.905 |
| CNC[C@H](O)c1ccc(O)c(O)c1 [Epinephrine Bitartrate] | 0.865 | 1.08 | 0.696 | 0.908 |
| O=C(NCc1ccccc1)c1csc(Nc2ccncn2)n1 [Thiazovivin] | 1 | 1.16 | 0.791 | 1.06 |
| CNC(=O)c1cc(Oc2ccc(NC(=O)Nc3ccc(Cl)c(C(F)(F)F)c3)c(F)c2)ccn1 [Regorafenib (BAY 73-4506)] | 0.71 | 0.717 | 0.472 | 0.308 |
| CC(C)(C)NCC(O)COc1cccc2c1CCC(=O)N2 (stereo not drawn) [Carteolol HCl] | 0.876 | 1.16 | 0.838 | 1.14 |
| CN(C)CC(=O)Nc1ccc2[nH]c(=O)c3ccccc3c2c1 | 0.84 | 1.06 | 0.74 | 1.03 |
| O=C(O)c1cc(/N=N/c2ccc(O)c(C(=O)O)c2)ccc1O [Olsalazine Sodium] | 0.872 | 1.16 | 0.821 | 1.16 |
| O=C(Nc1ccccc1-c1cn2c(CN3CCNCC3)csc2n1)c1cnc2ccccc2n1 | 0.608 | 0.845 | 0.0197 | 0.00961 |
| C[C@@H]1CCO[C@H]2Cn3cc(C(=O)NCc4ccc(F)cc4F)c(=O)c(O)c3C(=O)N12 | 0.978 | 1.12 | 0.956 | 0.994 |
| O=C(C1CCCCC1)N1CC(=O)N2CCc3ccccc3C2C1 (stereo not drawn) [Praziquantel] | 0.941 | 0.996 | 1.02 | 0.962 |
| C[C@]1(O)C[C@@H](c2nc(-c3ccc4ccc(-c5ccccc5)nc4c3)c3c(N)nccn32)C1 [OSI-906 (Linsitinib)] | 0.888 | 0.954 | 0.728 | 0.899 |
